Data as given in PubChem BioAssay AID686979 (National Center for Advancing Translational Sciences (NCATS), 2013).
Where “and” joins values, the source holds several entries; their conditions need not be identical. Equal values may be shown once. Out of some 420,000 compounds screened, about 50,000 (12%) were called active. The shares of active, inactive and inconclusive entries below differ from those in the screen. Calls come from the whole dose curve; as a rule, active = well fitted inhibition curve with a large enough effect; inconclusive = small, poorly fitted or top-dose-only effect; inactive = flat fitted curve, though single readings scatter. A potency beside an inconclusive call is a rough fit, not a confirmed value. The source holds several records for some structures; these can differ, active in one and inactive in another.

Assay: qHTS for Inhibitors of human tyrosyl-DNA phosphodiesterase 1 (TDP1): qHTS in cells in presence of CPT; note: nearly all actives have a fitted effect of over 55% in size
Settings: chicken DT40 Tdp1-/-;hTDP1 cells + 20 nM CPT, ATP luminescence, 48 h; activity change, negative = growth inhibition: at 46.2 µM (top of the series) unless noted
In short: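 Cell growth measured by CellTiter-Glo luminescence after a minimum 48 h, 37 C compound exposure with 20 nM CPT in Tdp1-knockout DT40 cells stably expressing hTDP1, seeded 400/well; qHTS titration format.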
% is set by controls: 0 for no effect and ±100 for the full control effect; potency is the fitted concentration of half-maximal effect; tags give direction and shape of the fitted curve.

Row | Compound | Potency | activity change, negative = growth inhibition
1 | CC(=O)NC1Sc2ccccc2N=C1c1ccccc1 (stereo unspecified) | inconclusive: 25.9 µM [inhibitor, partial curve, poor fit] | –
2 | Cc1c(NC(=O)c2cc(-c3ccccc3O)on2)c(=O)n(-c2ccccc2)n1C | inactive | –
3 | CC(Oc1ccccc1C(N)=O)C(=O)Nc1ccc(S(=O)(=O)N2CCCC2)cc1 (stereo unspecified) | inconclusive: 23.1 µM [inhibitor, single point] | –
4 | CN(C(=O)c1cccc(NC(=O)Cc2cccc(NC(=O)C3CCN(C(=O)C4CCCCC4)CC3)c2)c1)C1CCC1 | – | inactive: -27.6%
5 | COc1ccc(S(=O)(=O)N(C)CC(=O)Nc2ccc3c(c2)OCCO3)cc1 | inconclusive: 14.6 µM [inhibitor, partial curve, poor fit] | –
6 | Cc1c(CCO)c(=O)n(-c2ccccc2)n1S(=O)(=O)c1c(Cl)cc(Cl)cc1Cl | – | inactive: -24.9%
7 | CC(=O)N1CCc2cc(S(=O)(=O)NC(CC(C)C)C(=O)NCc3ccccc3Cl)ccc21 (stereo unspecified) | – | inactive: -4.4%
8 | COc1cccc(OCc2ccc(Cl)cc2)c1C#N | inconclusive: 18.4 µM [inhibitor, single point] | –
9 | O=c1c(NCc2ccccc2Cl)nccn1-c1ccccc1 | – | inactive: -17.8%
10 | CCC(C)[C@H](NC(=O)[C@H](Cc1ccccc1)n1c(=O)[nH]c2ccccc2c1=O)C(=O)N1CCC(C(=O)O)CC1 (stereo partly specified) | – | inactive: 9.95%
11 | C#CCOc1nc2c(c(=O)n(C)c(=O)n2C)n1Cc1ccccc1 | active: 11.6 µM | –
12 | O=C(CSc1nncs1)N1CCN(S(=O)(=O)c2ccccc2)CC1 | – | inactive: -17.6%
13 | CCOCCc1c(O)nc(SCC)[nH]c1=O | – | inactive: 4.42%
14 | CCC(=O)N1CCc2cc(Br)cc(S(=O)(=O)N3CCC(C(=O)Nc4ccccc4F)CC3)c21 | inconclusive: 29.1 µM [inhibitor, single point] | –
15 | CCCCCOc1ccc(Cn2c(=O)oc3ccc(C)cc32)cc1OC | active: 25.9 µM | –
16 | Cc1cc(N2CCN(C(=O)c3ccco3)CC2)nc(-c2ccccc2)n1 | inconclusive: 25.9 µM [inhibitor, single point] | –
17 | COc1ccc(Nc2nnc(C)c(=O)[nH]2)c(OC)c1 | – | inactive: 1.38%
18 | CN1CCN(c2ccccc2NC(=O)c2ccc(N3CCCC3)c([N+](=O)[O-])c2)CC1 | inconclusive: 20.6 µM [inhibitor, single point] | –
19 | CCCCNc1ccc(C(=O)OCCN(C)C)cc1 | inactive and active: 13 µM | –
20 | N#Cc1ccccc1NC(=O)CSc1nccn1CCc1ccccc1 | – | inactive: -7.08%
21 | Cc1ccc2nc(C(C)(C)C)c(Cc3cccc(Cl)c3)n2c1 | active: 16.4 µM | –
22 | Cc1c(C(=O)N2CCN(c3ccc(F)cc3)CC2)sc2nc3n(c(=O)c12)CCC3 | inactive and inconclusive: 29.1 µM [inhibitor, single point] | –
23 | O=C1CC(c2cc(F)cc(F)c2)c2cc3c(cc2N1)OCO3 (stereo unspecified) | inconclusive: 13 µM [inhibitor, partial curve] | –
24 | Cc1c(C(=O)N(C)CC(=O)Nc2cccc(F)c2)oc2c(Cl)cccc12 | inconclusive: 16.4 µM [inhibitor, single point] | –

Row | Compound | Potency | activity change, negative = growth inhibition
25 | CCc1nc2c(OCc3cccc(Cl)c3)cccn2c1N(C)C(C)=O | inconclusive: 14.6 µM [inhibitor, partial curve, poor fit] | –
26 | CCCCS(=O)(=O)c1oc(-c2cccs2)nc1S(=O)(=O)c1ccc(F)cc1 | active: 0.82 µM | –
27 | O=C(NCc1ccc(Cl)cc1)c1ccc2nc[nH]c2c1 | – | inactive: -28.3%
28 | O=C(Nc1ccc(Cl)cc1Cl)c1cc(S(=O)(=O)N2CCCCCC2)ccc1F | inconclusive: 18.4 µM [inhibitor, single point] | –
29 | Cc1cc(C)cc(C(=O)n2nc(C)c(S(=O)(=O)N3CCCCCC3)c2C)c1 | – | inactive: -10.6%
30 | CC(/C=N/Nc1nc(N2CCCCC2)nc(N2CCCCC2)n1)=C\c1ccccc1 | – | inconclusive: -32.9% [inhibitor]
31 | O=c1[nH]c2ccccc2nc1/C=C/c1ccc(F)cc1 | inconclusive: 16.4 µM [inhibitor, single point] | –
32 | CCCOc1ccc(NC(=O)CC2C(=O)N(c3ccc(C)cc3)C(=O)N2CCc2ccncc2)cc1 (stereo unspecified) | inconclusive: 29.1 µM [inhibitor, single point] | –
33 | COc1ccc(C(=O)c2ccc(OC)c(N)c2)cc1N | – | inactive: -4.31%
34 | COC(=O)c1ccc(NC(=O)C2CC3CCC2C3)cc1 (stereo unspecified) | – | inactive: -0.224%
35 | Cc1ccc(NC(=O)CSc2ccc(-c3ccc4c(c3)OCO4)nn2)cc1F | inconclusive: 0.0146 µM [inhibitor, full curve, poor fit] | –
36 | N#Cc1ccc(-c2ccc(OCC(=O)Nc3cccnc3)cc2)cc1 | inconclusive: 29.1 µM [inhibitor, single point] | –
37 | CCOC(CNC(=O)c1ccc(N2CCc3ccccc32)c([N+](=O)[O-])c1)OCC | active: 20.6 µM | –
38 | Cc1ccc(CNCCCSc2nc(C)cc(C)n2)cc1 | inconclusive: 18.4 µM [inhibitor, partial curve] | –
39 | O=C(N/C=C/c1ccccc1)Nc1ccc(Cl)cc1 | inconclusive: 18.4 µM [inhibitor, single point] | –
40 | CCOc1ccc(-c2nnc3ccc(SCC(=O)Nc4cc(C)on4)nn23)cc1 | – | inactive: 3.27%
41 | CCN(C(=O)CSc1nnc(Cn2nnc3ccccc32)o1)c1nc(-c2ccccc2)cs1 | active: 23.1 µM | –
42 | COc1ccc2cc(CO)n(C)c2c1 | active: 8.2 µM | –
43 | COc1ccc(-c2noc(CCC(=O)NC3CCCCC3)n2)cc1 | inconclusive: 29.1 µM [inhibitor, single point] | –
44 | CCCc1[nH]c2ccc(C#N)cc2c1CCC | inconclusive: 16.4 µM [inhibitor, single point] | –
45 | N#Cc1ccccc1OCc1nnc(-c2ccccc2Br)o1 | inconclusive: 16.4 µM [inhibitor, single point] | –
46 | Oc1ccc(/C=N/Nc2ccc3ccccc3c2)c(O)c1 | – | inactive: -6.1%
47 | CCN(C(=O)COC(=O)CCC(=O)c1ccc(C)cc1)c1c(N)n(Cc2ccccc2)c(=O)[nH]c1=O | inconclusive: 20.6 µM [inhibitor, single point] | –
48 | N#CCCN(C(=O)COc1ccc(F)cc1Br)c1ccccc1F | – | inactive: -19.2%

Row | Compound | Potency | activity change, negative = growth inhibition
49 | O=C(NCC1CCCO1)C1CCN(S(=O)(=O)c2ccccc2)CC1 (stereo unspecified) | – | inactive: 7.66%
50 | COc1ccc(Cn2nnnc2C(c2cc3cccc(C)c3[nH]c2=O)N2CCOCC2)cc1 (stereo unspecified) | – | inactive: -29.7%
51 | CC(C)Cn1c(C2CC(=O)N(c3ccccc3Cl)C2)nc2ccccc21 (stereo unspecified) | inconclusive: 18.4 µM [inhibitor, single point] | –
52 | CCc1nc2c(OCc3ccc(C#N)cc3)cccn2c1N(C)C(=O)C(C)C | inconclusive: 16.4 µM [inhibitor, single point] | –
53 | Cc1c(N2C(=O)c3ccc4c5c(ccc(c35)C2=O)CC4)c(=O)n(-c2ccccc2)n1C | inconclusive: 9.2 µM [inhibitor, partial curve] | –
54 | CCC(C)(C)C1CCc2[nH]nc(C(=O)NCCCNC(=O)OC(C)(C)C)c2C1 (stereo unspecified) | inconclusive: 18.4 µM [inhibitor, single point] | –
55 | CC(C)(C)OC(=O)N1Cc2[nH]c3ccccc3c2C[C@@H]1C(=O)O | – | inactive: -3.34%
56 | O=C(c1ccc(Cl)cc1)C1CCN(C(=O)c2ccccc2)CC1 | inconclusive: 29.1 µM [inhibitor, single point] | –
57 | Cc1ccc(S(=O)(=O)N2CCN(c3nn(C)c(=O)n(C)c3=O)CC2)cc1C | active: 7.31 µM | –
58 | CC(C)(C)c1ccc(C(=O)Nc2ccc(Oc3cccnc3)nc2)cc1 | inconclusive: 23.1 µM [inhibitor, single point] | –
59 | CN1CCN(c2ccccc2NC(=O)c2cc(Br)ccc2Cl)CC1 | inconclusive: 25.9 µM [inhibitor, single point] | –
60 | COc1cccc(C(=O)Nc2cc(S(=O)(=O)N3CCCCC3)ccc2OC)c1 | inconclusive: 18.4 µM [inhibitor, single point] | –
61 | COc1ccc(NS(=O)(=O)c2cc3c(cc2C)N(C(C)=O)CCO3)cc1OC | – | inactive: -25%
62 | CC(C)OC(=O)[C@H]1[C@H](c2ccc(Cl)cc2)[C@@](C#N)(C(N)=O)[C@@H]2C=CC(C(N)=O)=CN21 | – | inconclusive: -30.4% [inhibitor]
63 | Cc1[nH]c(=S)c(C#N)c(C)c1Cc1ccccc1 | inconclusive: 29.1 µM [inhibitor, single point] | –
64 | O=C(NC(=S)N1CCN(c2ccc(O)cc2)CC1)c1cccs1 | inconclusive: 25.9 µM [inhibitor, single point] | –
65 | C=CCn1c(COc2ccc(F)cc2)nnc1SCC(=O)c1c[nH]c2c(CC)cccc12 | inconclusive: 29.1 µM [inhibitor, single point] | –
66 | COc1ccc(-n2cnnc2SCC(=O)Nc2cc(S(=O)(=O)N3CCCCC3)ccc2C)cc1 | inconclusive: 18.4 µM [inhibitor, single point] | –
67 | OCC1(CCc2ccccc2)CCN(Cc2cc(Cl)ccc2O)CC1 | – | inactive: 3.95%
68 | COC(=O)[C@@]1(C(C)C)N=C(c2cc(OC)c(OC)c(OC)c2)[C@]2(O1)C(=O)N(C)c1ccc(Cl)cc12 | inconclusive: 29.1 µM [inhibitor, single point] | –
69 | CCc1ccc(NC(=O)CSc2ccc3nc(-c4ccc(OC)cc4)cn3n2)cc1 | inconclusive: 23.1 µM [inhibitor, single point] | –
70 | COc1ccc(NC(=O)c2ccc(-c3ccc(-c4noc(C)n4)cc3C)cc2)cc1N1CCN(C)CC1 | active: 5.31 µM and active: 2.82 µM and active: 2.59 µM | –
71 | CN(C)C(CNC(=O)c1ccc(NS(=O)(=O)c2ccc3[nH]c(=O)[nH]c3c2)cc1)c1ccccc1 (stereo unspecified) | – | inactive: -24.1%
